# Measurements: ChEMBL document CHEMBL4888484, “Replenishing the malaria drug discovery pipeline: Screening and hit evaluation of the MMV Hit Generation Library 1 (HGL1) against asexual blood stage Plasmodium falciparum ,using a nano luciferase reporter read-out” (2022)
# The campaign covered roughly 150,000 compounds. About 540 (0.36%) showed an effect of 50% or more. This is one part of the list.
# Test system: Plasmodium falciparum
# Assay: Primary screen in NF54 nanoGlo assay, in single point, at 2uM, 72h; a lower Z score goes with more inhibition
# Assay type: functional, Erythrocyte
# Conditions: timepoint 72 hour
SMILES,% Inhibition [%],Z score
O=C(c1cccc(-c2cnccn2)c1)N(Cc1cccnc1)C1CCCCC1,-5,0.88
C[C@]1(C(=O)O)CCN(C(=O)c2ccc(-c3ccccc3F)o2)C1,-5,0.96
COc1cccc(NC(=O)Cn2c(C)cc3nc4n(c(=O)c32)CCC4)c1,0,0.01
O=C(NCCN1CCN(C2Cc3ccccc3C2O)CC1)C1CCC1 (configuration not stated),-18,2.27
CCC[C@@]1(C2CCN(C(=O)c3cccc(Cl)c3F)CC2)NC(=O)N(CCc2cccs2)C1=O,6,-0.7
Cc1noc(-c2c(C)sc(C)c2S(=O)(=O)Nc2ccccc2Cl)c1C,-12,2.08
NC(=O)CN1C(=O)[C@]2(CCN(c3ncnc4c3CCC4)C2)c2ccccc21,-6,0.74
O=S(=O)(Cc1ccon1)N1CCN(Cc2nccs2)CC1,2,-0.32
COCC[C@H]1CN(c2nccnc2C#N)CCO1,-10,1.93
CN(C(=O)CCCOc1ccc(F)cc1)C1CCS(=O)(=O)CC1,-2,0.24
CC(NC(C)C1CN(C(=O)OC(C)(C)C)C1)c1ccccc1Br (configuration not stated),34,-0.72
Cc1cc(C)cc(CN2CCN(C(=O)CCCn3cccn3)CC2=O)c1,-6,1.14
COc1ccc(CCNC(=O)CN2C(=O)CCc3cc(Br)ccc32)cc1OC,-13,1.76
C=CCOc1ccc([C@H]2CC(=O)Nc3c2c(C)nn3-c2nncc(-c3ccc(C)cc3)n2)cc1OC,6,-1.06
Cc1ccc(/N=C(\NCc2cccnc2)NC(=O)c2cccc(Cl)c2)cc1,-16,1.51
Cn1ncnc1NC(=O)NCC1(C)CCCCCC1,-2,0.29
CC1CCN(CCOc2nc(C(F)(F)F)ccc2C(N)=O)CC1,7,-1.41
Cc1cc2n(n1)CCCN(C(=O)Nc1c(C)c(-c3ccccc3)nn1C)C2,1,-0.21
O=C(C1CCOCC1)N1CCC(Cc2ccc(COc3cccnc3)cc2)CC1,-20,3.79
C#Cc1cc(F)c(NCc2ncnn2C(C)(C)C)c(F)c1,-6,0.57
Cn1cc(CN2CCC[C@H](n3cncn3)C2)c(C2CCCC2)n1,-9,1.77

SMILES,% Inhibition [%],Z score
CCc1cc(CN(C)Cc2nnc(C3CC3)o2)on1,-12,2.31
CCc1c(C)nn2c(c1C)c(-c1ccccc1)[n+]1c(C)c(CC)c(C)nc21,53,-10.21
CCN(CCC(=O)Nc1c(Cl)cccc1Cl)C[C@H]1CCCO1,-4,0.54
Cc1cc(CNC(=O)c2ccc(F)cc2)on1,-14,2.04
COCc1nncn1C1CN(C(=O)Cc2cc(OC)cc(OC)c2)C1,36,-4.79
CN(C[C@H]1CCOC1)C(=O)CCc1ccncc1,-11,1.76
Cc1cc(C)c(CN2CCN(C(=O)c3nc[nH]n3)CC2)c(-n2cccn2)c1,-2,0.37
O=C(Cn1ccc2ccccc21)N1C[C@H]2C[C@@H](C1)C1CCCC(=O)N1C2 (some centres not stated),5,-0.82
C#CCN(Cc1nnc(C2CC2)o1)CC(F)(F)F,-5,0.47
CCCCN1C(=O)CC[C@@H]2CN(C(=O)c3ccc(COC)o3)CC[C@@H]21,-3,0.57
CCc1nc(C)c(C(=O)N(C)C[C@H]2COc3ccccc3O2)o1,-7,0.78
Cc1cc(Cl)c2oc(C(=O)N3CCN(C(=O)c4ccco4)CC3)c(C)c2c1,-11,2.16
Cc1cccc(-n2ncc3c2CCC[C@@H]3NC(=O)c2ccnc(-n3cnnn3)c2)c1C,-31,3.27
CN(C)Cc1ccc(NC(=O)c2cc(F)cc3c(=O)c4cc(F)ccc4[nH]c23)cc1,77,-11.59
Cc1ccsc1[C@H]1CCN(C(=O)c2ccc(N)nc2)C[C@@H]1O,4,-0.79
CC[C@@H](C(=O)Nc1ccc(C)c(Cl)c1)n1nc(-c2cccc(OC)c2)c2c(C)onc2c1=O,-13,2.4
C=CCCS(=O)(=O)Nc1ccc(C(F)(F)F)nc1,-12,1.49
CCOc1ccc(NC(=O)c2sc3ncnc(N4CCCCC4)c3c2C)cc1,-9,1.35
N#Cc1cc(-n2cnnc2)ccc1N1CCCC1,-16,2.73
Cc1ccc(N2C(=O)[C@@H]3C(c4cccnc4)=NO[C@@H]3C2=O)cc1,7,-0.94
